# Source: PubChem BioAssay AID1508642 (National Center for Advancing Translational Sciences (NCATS), 2021)
# About 200 (0.47%) of roughly 43,000 compounds were called active. Another 12% or so got no clear call; they are omitted. Calls follow the shape of the dose curve; as a rule, active = well fitted cell-killing curve with a large enough effect; inconclusive = small, poorly fitted or top-dose-only effect, or effect the other way; inactive = flat fitted curve, though single readings scatter. This is one part of the list.
# Assay: Cell viability qHTS assay in S16 Pmp22-F2sN cells; also: nearly all actives have a fitted effect of over 65% in size
# Conditions: S16 Pmp22-F2sN Schwann cells (luciferase reporters placed in the Pmp22 gene) viability, CellTiter-Glo, 24 h; series mostly up to 57.5 µM; activity change, negative = cytotoxicity: at the top concentration
# Summary of the method: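 Luminescence from CellTiter-Glo, read by CCD camera after a 15 min room-temperature incubation, served as the viability signal. Reporter Schwann cells (S16 Pmp22-F2sN) had been treated with pin-transferred compounds for 24 h at 37C.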
# % is scaled to controls: 0 for no effect and ±100 for the full control effect.
row,Compound,"activity change, negative = cytotoxicity"
1,COc1ccc(NC(=O)C(C)Sc2cc(-c3ccccc3)nc(C)n2)cc1Cl (configuration not stated),inactive: 8.02%
2,CCCNC(=O)C1CCN(Cc2cc3ccccc3n2Cc2ccccc2)CC1,inactive: -20.6%
3,CC1(C)CC(=O)c2cc(-c3nc(-c4ccc(Cl)cc4)cs3)c(=O)n(-c3cccc(F)c3)c2C1,inactive: 1.61%
4,COc1cc(C)ccc1OCCSc1nc2ccc(NC(=O)c3ccc(C)cc3)cc2s1,inactive: 4.05%
5,COc1ccccc1NC(=O)CCn1cnc2onc(-c3ccc(F)cc3)c2c1=O,inactive: -19%
6,O=C(CN1C(=O)CC(c2ccco2)Sc2ccccc21)Nc1ccc(Br)cc1 (configuration not stated),inactive: -2.48%
7,CCCSc1nnc2c(n1)OC(c1ccc(OCC(=O)O)cc1)Nc1ccccc1-2 (configuration not stated),inactive: 1.59%
8,COc1ccccc1-c1noc(-c2ccc(NCc3cccnc3)c([N+](=O)[O-])c2)n1,inactive: 0.488%
9,COc1ccc(-c2ccc(CCC(=O)O)n2CC(=O)Nc2cccc(Cl)c2C)cc1,inactive: 4.05%
10,CC(=O)c1cccc(Nc2nn(-c3ccc(OC(F)(F)F)cc3)nc2C(C)=O)c1,inactive: 4.08%
11,COc1ccc(CNC(=O)CCc2c(C)nc3nc(CNC(=O)OC(C)(C)C)nn3c2C)cc1,inactive: -19.9%
12,Cc1c(C(=O)N(Cc2ccc(N(C)C)cc2)Cc2ccco2)oc2cc(Br)ccc12,inactive: 1.67%
13,Cn1cc(C(=O)NCCc2ccccc2)c(=O)c2cc(S(=O)(=O)N3CCCCCC3)ccc21,inactive: -17.6%
14,CCN(Cc1ccccc1)Cc1c(O)ccc2c(=O)c(-c3ccccc3Cl)coc12,inactive: -19%
15,CCn1cc(C(=O)NCCCOC(C)C)c(=O)c2cc(S(=O)(=O)N(C)C3CCCCC3)ccc21,inactive: -17.9%
16,O=C(Nc1cc(-c2nc3cc(Cl)ccc3o2)ccc1Cl)c1cc2ccccc2o1,inactive: 1.11%
17,CCOC(=O)c1c(-c2ccccc2)csc1NC(=O)c1cc(-c2cccc(Cl)c2)on1,inactive: 1.42%
18,Cc1ccc(C)c(N2CCN(S(=O)(=O)c3ccc4c(c3)n(C)c(=O)c(=O)n4C)CC2)c1,inactive: 18.5%
19,O=C(NCc1ccccc1)c1ccc(Cn2c(=O)c3cccn3c3cccnc32)cc1,inactive: 4.47%
20,CC(=O)c1cccc(NC(=O)c2ccc3c(c2)c(C)c(C)n3Cc2ccc(Cl)cc2)c1,inactive: -21.7%
21,COc1cc(OC)c(NC(=O)CSCc2nc(-c3ccc(OC)c(OC)c3)no2)cc1Cl,inactive: 2.76%
22,CCOc1ccccc1NC(=O)CN1Cc2ccccc2C1=O,inactive: -4.32%
23,COC(=O)c1ccc(CN(Cc2ccc(OC)c(OC)c2)S(=O)(=O)c2ccc(F)c(C(=O)Nc3cc(C)ccc3C)c2)cc1,inactive: -1.11%
24,CC(Oc1ccccc1)C(=O)Nc1ccc(C(=O)OCc2cc(=O)n3ccsc3n2)cc1 (configuration not stated),inactive: 14.6%

row,Compound,"activity change, negative = cytotoxicity"
1,Cc1cccc(C(=O)NCC(=O)OCc2cc(=O)n3nc(C)sc3n2)c1,inactive: -0.73%
2,N#Cc1nc(/C=C/c2ccc(F)cc2)oc1N1CCCCC1,inactive: -0.567%
3,CCc1nn2c(=O)cc(COC(=O)c3cccs3)nc2s1,inactive: 7.36%
4,Cc1nc(SCC(=O)Nc2ccc(Cl)cc2C(F)(F)F)[nH]c(=O)c1Cc1ccccc1,inactive: 22.6%
5,Cc1ccc(Cn2cc3c(n2)-c2c(oc(C(=O)Nc4ccc(F)cc4F)c2C)CC3)cc1,inactive: 10.7%
6,Cc1cccc(Nc2cc(C)nc3nc(Cc4ccc(Cl)cc4)nn23)c1,inactive: -21.3%
7,CCOC(=O)c1ccc(NC(=O)Cn2cc(S(=O)(=O)Cc3ccccc3F)c3ccccc32)cc1,inactive: 12.9%
8,Cc1cc(-c2ccccc2)nc2cc(C(=O)Nc3cc(C(F)(F)F)ccc3Cl)nn12,inactive: 16.6%
9,COc1ccc(CNC(=O)c2ccc3c(Cl)c4c(nc3c2)CCCC4)c(OC)c1,inactive: 0.891%
10,COc1ccc(-c2ccc(NS(=O)(=O)c3ccccc3Cl)cc2)nn1,inactive: -19.1%
11,COc1ccc(Cn2c(CCC(=O)Nc3cccc(Cl)c3)nc3cccnc32)cc1,inactive: 7.61%
12,Cc1nc(N2CCOCC2)c2c(C(=O)N3CCN(c4ccc(Cl)cc4)CC3)c(C)oc2n1,inactive: 6.43%
13,CCOc1cccc2cc(-c3nc(-c4ccc(Cl)cc4)c(C)s3)c(=O)oc12,inactive: 10.8%
14,CCc1ccc(-c2cn3c(n2)sc2cc(C(=O)NCCCc4ccccc4)ccc23)cc1,inactive: -3.53%
15,COc1ccc(-c2nsc(NC(=O)c3cccc(OC)c3)n2)cc1,inactive: -1.18%
16,Cc1ccc(OCCSc2nc3ccccc3n2CC(=O)N2CCCCC2)c(C)c1,inactive: -20.7%
17,O=C(Nc1cccc(-c2nc3cc(Cl)ccc3o2)c1)c1ccc(F)cc1,inactive: 12.6%
18,O=C(Cn1c(=O)n(Cc2ccc(F)cc2)c(=O)c2sc3ccccc3c21)NCc1ccccc1,inactive: 5.76%
19,COc1cccc(OCc2nc3ccccc3n2C)c1,inactive: 8.06%
20,O=C(CCn1cnc2onc(-c3ccc(F)cc3)c2c1=O)N1CCN(c2ccccc2)CC1,inactive: -1.72%
21,O=C(NCc1noc2ccccc12)N1CCN(c2ccccc2F)CC1,inactive: 0.527%
22,O=C(Cn1c(=O)oc2cc(S(=O)(=O)N3CCCC3)ccc21)Nc1ccc(OC(F)(F)F)cc1,inactive: 1.37%
23,COc1ccc(-c2nc3sc(CCNC(=O)C(=O)Nc4ccc(C)cc4C)c(C)n3n2)cc1,inactive: -11.9%
